# Data reported in PubChem BioAssay AID651820 (National Center for Advancing Translational Sciences (NCATS), 2012).
# Out of some 340,000 compounds screened, about 12,000 (3.5%) were called active. Inconclusive results, whose numbers are uncertain, are shown with a selection of clear calls. The call rests on the fitted dose curve; in most records, active means well fitted inhibition curve with a large enough effect; inconclusive means small, poorly fitted or top-dose-only effect, or another doubt; inactive means no such curve, though single readings can be large or run the other way. Potencies of inconclusive entries are left out as doubtful fits.
# Assay: qHTS Assay for Inhibitors of Hepatitis C Virus (HCV)
# Conditions: Huh7.5.1 HCVcc-Cre (HCVcc is cell-culture hepatitis C virus) infection, luciferase reporter, 44 h; activity change, negative = inhibition: at 41.8 µM (top of the series)
# Procedure, shortened: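 Cells seeded at 1,000/well and cultured 4 h, then compounds added followed by HCVcc-Cre virus (~0.5 moi). After 44 h further culture, luciferase substrate was added, plates held 15 min at room temperature, and luminescence read for 15 sec.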
# On the % scale 0 is the no-effect control and ±100 the full control effect; potency means the concentration at half of the fitted maximal effect; tags describe the fitted curve by direction and shape.
Structure (SMILES),Potency,"activity change, negative = inhibition"
COc1ccccc1N1CCN(C(=O)c2cc(S(=O)(=O)N3CCOCC3)ccc2C)CC1,"inconclusive [inhibitor, single point]",
O=C(NC12CC3CC(CC(C3)C1)C2)C1CCCN1C(=O)Nc1ccccc1 (stereo not given),inactive,
Cc1[nH]c2ccccc2c(=O)c1C(=O)/C=C/c1ccccc1,active: 11.2 µM,
CC1CCN(C(C)C(=O)Nc2ccc(S(=O)(=O)N3CCCC3)cc2)CC1 (stereo not given),"inconclusive [inhibitor, single point]",
CCOc1ccc(NS(=O)(=O)c2cc(NC(=O)CCS(=O)(=O)c3ccc(C)cc3)ccc2OC)cc1,"inconclusive [inhibitor, partial curve]",
Cc1ccc(NC(=O)c2cccc(OCc3c(C)noc3C)c2)c(C)c1,"inconclusive [inhibitor, single point]",
Cc1[nH]c2ccccc2c1/C=C/c1nc2ccccc2c(=O)n1CCO,"inconclusive [inhibitor, partial curve]",
CCN(CC)c1ccc(/C=N/NC(=O)CN2CCCc3ccccc32)cc1,"inconclusive [inhibitor, single point]",
CCOC(=O)N1CCN(S(=O)(=O)c2ccc(C(=O)N(CCCN(C)C)c3nc4cc(OC)ccc4s3)cc2)CC1,"inconclusive [inhibitor, single point]",
COc1ccc(CCCc2nnc(SCC(=O)Nc3nc(C)cs3)n2C)cc1,inactive,
CCc1cccc(NC(=O)c2ccc(NS(=O)(=O)c3c(C)noc3C)cc2)c1,"inconclusive [inhibitor, partial curve, poor fit]",
Cc1cccc(NC(=O)c2ccc(NCC3CCCO3)c([N+](=O)[O-])c2)n1 (stereo not given),"inconclusive [inhibitor, single point]",
CCOC(=O)C1=C(COC(=O)CNS(=O)(=O)c2c(F)cc(F)cc2Br)NC(=O)NC1C (stereo not given),inactive,
CCOc1ccc(CNC(=O)C(C)n2ccc3cc(S(=O)(=O)N4CCCC4)ccc32)cc1 (stereo not given),"inconclusive [inhibitor, partial curve]",
Cc1cccc(/C=C2\Sc3ccc(C(=O)N4CCOCC4)cc3N(C)C2=O)c1,"inconclusive [inhibitor, single point]",
Cc1cc2oc(=O)cc(CN3CCCCC3C)c2cc1Cl (stereo not given),"inconclusive [inhibitor, single point]",
COC(=O)CN(c1nc(C)cc(OC)n1)S(=O)(=O)c1ccccc1,"inconclusive [inhibitor, single point]",
Cc1cc(C)n2nc3nc(N4CCCC4)nc(-c4ccccc4)c3c2n1,"inconclusive [inhibitor, partial curve]",
O=C(CCl)Nc1ccc(Oc2cnc3ccccc3n2)cc1,"inconclusive [inhibitor, partial curve]",
COc1ccc(O[C@H]2C=C[C@@H](c3ccccc3)O[C@@H]2COC(=O)CC/C(C)=N/OC[C@@H](O)COCc2ccco2)cc1,,inactive: 2.94% [at 8.37 µM]
Cc1ccccc1N1CCN(Cc2c(C#N)c3ccccc3n2C)CC1,"inconclusive [inhibitor, single point]",
Cc1c(C(=O)Nc2ccncc2)oc2ccccc12,"inconclusive [inhibitor, partial curve, poor fit]",

Structure (SMILES),Potency,"activity change, negative = inhibition"
Cc1cc(F)ccc1N1CCC(N2CCN(CCC(C)C)C(CCO)C2)CC1 (stereo not given),active: 10 µM,
CCOc1ccc(NC(=O)CN(C)C(=O)C(C)Oc2ccc(Cl)cc2)cc1OCC (stereo not given),"inconclusive [inhibitor, single point]",
CC1(C)C2CCC1(C)C(NC(=O)/C=C/c1ccccc1)C2 (stereo not given),inactive,
COc1cccc2[nH]c3c(N4CCC(C)CC4)ncnc3c12,"inconclusive [inhibitor, partial curve]",
COc1ccc(S(=O)(=O)N(C)C[C@@H]2Oc3c(NS(C)(=O)=O)cccc3C(=O)N([C@@H](C)CO)C[C@H]2C)cc1,inactive,
CCCn1c(C)cc(/C=C(\C#N)C(=O)OCC(=O)Nc2cc(OC)c(OC)c(OC)c2)c1C,"inconclusive [inhibitor, single point]",
O=C(CCNC(=O)c1ccccc1Cl)Nc1nc(-c2ccc3ccccc3c2)cs1,"inconclusive [inhibitor, single point]",
COc1ccccc1-c1c(C)oc2cc(OCC(=O)OCc3ccccc3)ccc2c1=O,inactive,
Cc1ccc(-c2csc3nc(C)n(N)c(=O)c23)cc1,inactive,
CC(Oc1ccc(Cl)cc1Cl)c1nc(-c2ccc(NC(=O)c3ccncc3)cc2)no1 (stereo not given),active: 2.82 µM,
CCCCOC(=O)c1ccc(NC(=O)COC(=O)C2CSC3(C)CCC(=O)N23)cc1 (stereo not given),"inconclusive [inhibitor, single point]",
CCn1c(SCC(=O)Nc2cc(F)ccc2C)nnc1-c1ccccc1O,"inconclusive [inhibitor, single point]",
COc1cccc(N(CC(=O)Nc2cccnc2)S(C)(=O)=O)c1,inactive,
O=C(NC1CCN(Cc2ccc3ccccc3c2)CC1)c1ccccc1,"inconclusive [inhibitor, single point]",
CCN1CCN(CCNC(=O)c2ccc(/C=C3/Sc4ccccc4N(Cc4cccc(Cl)c4)C3=O)cc2)CC1,active: 11.2 µM,
O=C(NCC1COc2ccccc2O1)c1cccc(S(=O)(=O)NCc2ccccc2)c1 (stereo not given),"inconclusive [inhibitor, single point]",
O=C(c1ccc(COc2c(F)c(F)c(F)c(F)c2F)o1)N1CCOCC1,inactive,
O=C1CCc2cc(NS(=O)(=O)c3ccc([N+](=O)[O-])cc3)cc3c2N1CC3,"inconclusive [inhibitor, single point]",
O=C(Nc1ccc(NC(=O)c2cccs2)cc1)c1ccc2c(c1)OCCO2,"inconclusive [inhibitor, partial curve]",
CC(Sc1nc(N(C)C)nc(N2CCOCC2)n1)C(=O)Nc1ccccc1 (stereo not given),"inconclusive [inhibitor, partial curve]",
COC(=O)[C@@]1(Cc2ccc(F)cc2)[C@H]2c3cc(C(=O)N4CCCC4)n(CCc4ccccn4)c3C[C@H]2CN1C(=O)c1ccccc1,inactive,
COc1ccc(NC(=O)NCCCCc2ccccc2)cc1OC,"inconclusive [inhibitor, single point]",

Structure (SMILES),Potency,"activity change, negative = inhibition"
CCOC(=O)N1CCC(=NNc2nc3ccccc3s2)CC1,inactive,
O=C(COC(=O)c1cccnc1SCC(=O)NCc1ccccc1)NCc1ccccc1,"inconclusive [inhibitor, single point]",
CCCNc1nc(C)cc(-c2cc(C(=O)Nc3ccccc3)on2)n1,"inconclusive [inhibitor, partial curve]",
Cc1c(C(=O)Nc2ccccc2)csc1-c1ccccc1,"inconclusive [inhibitor, single point]",
COc1cnc(-c2ccccn2)nc1Sc1c(Cl)cccc1Cl,"inconclusive [inhibitor, single point]",
CCC(Oc1ccccc1)C(=O)Nc1ccc(C)c(S(=O)(=O)N2CCOCC2)c1 (stereo not given),"inconclusive [inhibitor, single point]",
COc1ccc(NC(=O)CSc2cc(C(=O)c3nccn3C)c3ccccc3n2)cc1,"inconclusive [inhibitor, single point]",
O=S(=O)(NCc1ccc(F)cc1)c1ccc2c(c1)OCCO2,"inconclusive [inhibitor, partial curve]",
CC(C)CN1CCN(Cc2ccc(CN3CCCCC3)s2)CC1CCO (stereo not given),"inconclusive [inhibitor, single point]",
COc1cccc(NC(=O)C(C)(C)C)c1,"inconclusive [inhibitor, full curve, poor fit]",
COC(=O)C(NC(C)=O)(Nc1nc2c(C)cc(C)cc2s1)C(F)(F)F (stereo not given),"inconclusive [inhibitor, single point]",
COCCN1C(=O)c2cc(C(=O)Nc3ccc(C)c(F)c3)ccc2C1Nc1ccc(C)c(F)c1 (stereo not given),,inactive: -14.5% [at 8.37 µM]
CCOCCCNC(=O)c1cc(Nc2ccc(OC)cc2OC)nc2ccccc12,"inconclusive [inhibitor, partial curve]",
Cc1cc(C)c2c(N)c(C(=O)c3ccc(Br)cc3)oc2n1,"inconclusive [inhibitor, single point]",
CCN1c2ccccc2NC2C1C(C(C)=O)C(=O)N2c1ccc(Cl)cc1 (stereo not given),active: 10 µM,
Cc1cc(C)c2sc(N(CCCN(C)C)C(=O)CN3C(=O)c4ccccc4C3=O)nc2c1,"inconclusive [inhibitor, single point]",
CC1(C)CC(=O)C(C=NCCN2CCN(C(=S)Nc3ccc(F)cc3)CC2)=C(O)C1,"inconclusive [inhibitor, single point]",
Cc1ccc(N2C(=O)Nc3ccccc3S2(=O)=O)cc1Cl,inactive,
CCOC(=O)N1CCC(NC(=O)c2cc(COc3ccccc3SC)on2)CC1,active: 15.8 µM,
O=C(COc1ccc2ccc(=O)oc2c1)N1CC[C@@]2(O)CCCC[C@H]2C1,"inconclusive [inhibitor, full curve, poor fit]",
Cc1nc(C)n(CC(O)COc2ccc(C(=O)c3ccccc3)cc2)n1 (stereo not given),"inconclusive [inhibitor, full curve, poor fit]",
